Molecular target: T1, hPD-L1-mFc (human)
T1 construct: it may hold a signal peptide; also called human PD-L1-mFc; PD-L1-mFc (Crownbio)
Assay: ELISA, coated PD-L1-mFc

B1: ch13C5-hIgG1 (antibody)
heavy: EVKLVESGGGLVKPGGSLKLSCAASGFIFRSYGMSWVRQTPEKRLEWVASISSGGSTYYPDSVKGRFTISRDNARNILYLQMSSLRSEDTAMYDCARGYDSGFAYWGQGTLVTVSS[human IgG1 constant region with D265A N297A (EU numbers) not spelt out]
light: DIVLTQSPASLAVSLGQRATISCRASQSVSTSSSSFMHWYQQKPGQPPKLLIKYASNLESGVPARFSGSGSGTDFTLNIHPVEEEDTATYYCQHSWEIPYTFGGGTKLEIKRTRTVAAPSVFIFPPSDEQLKSGTASVVCLLNNFYPREAKVQWKVDNALQSGNSQESVTEQDSKDSTYSLSSTLTLSKADYEKHKVYACEVTHQGLSSPVTKSFNRGEC
notes: Mouse-human chimeric IgG1 (D265A), human kappa; also called Chimeric 13C5-IgG1 (D265A)
EC50: 0.0721 µg/mL

B2: ch13C5-hIgG4 (antibody)
heavy: EVKLVESGGGLVKPGGSLKLSCAASGFIFRSYGMSWVRQTPEKRLEWVASISSGGSTYYPDSVKGRFTISRDNARNILYLQMSSLRSEDTAMYDCARGYDSGFAYWGQGTLVTVSSASTKGPSVFPLAPCSRSTSESTAALGCLVKDYFPEPVTVSWNSGALTSGVHTFPAVLQSSGLYSLSSVVTVPSSSLGTKTYTCNVDHKPSNTKVDKRV[human IgG4 Fc with S228P F234A L235A (EU numbers) not spelt out]
light: DIVLTQSPASLAVSLGQRATISCRASQSVSTSSSSFMHWYQQKPGQPPKLLIKYASNLESGVPARFSGSGSGTDFTLNIHPVEEEDTATYYCQHSWEIPYTFGGGTKLEIKRTRTVAAPSVFIFPPSDEQLKSGTASVVCLLNNFYPREAKVQWKVDNALQSGNSQESVTEQDSKDSTYSLSSTLTLSKADYEKHKVYACEVTHQGLSSPVTKSFNRGEC
notes: Mouse-human chimeric IgG4 (F234A/L235A), human kappa; also called Chimeric 13C5-IgG4 (F234A/L235A)
EC50: 0.118 µg/mL

Reference: patent US20170204184A1 (CB THERAPEUTICS, published 2017)
